# Test results: PMC12040169 (PLOS Biology, 2025)
# Some of the results follow.
# Test system: T1, C. trachomatis L2/434/Bu expressing GFP (CTL2-GFP)
# T1 construct: L2/434/Bu GFP intracellular growth in HeLa cells
# Set-up: species or system HeLa; C. trachomatis total inclusion area by high-content imaging, normalised to DMSO
# Conditions: total inclusion area; 28.5 h, 10 µM; inhibitor
# Method in brief: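 Following bulk GFP and resorufin fluorescence reads, infected cells were fixed, Hoechst-stained and imaged on a high-content platform. Inclusion total area and number per well served as growth proxies; nuclei counts indicated host viability. MICs were derived as for the fluorescence assay.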
row,SMILES,% of control remaining
1,CC(=O)c1csc(NC(=O)Cn2ccc3ccc(F)cc32)n1 [CBK282572],86.3958
2,O=C(c1ccccc1F)N1CCC(c2n[nH]c3ncccc23)CC1 [CBK284903],101.948
3,CCN1CCN(C(=O)c2ccccc2N(Cc2ccccc2)S(C)(=O)=O)CC1 [CBK267028],103.269
4,CC(C)Oc1cccc(C(=O)Nc2ccc(N3CCN(C)CC3)cc2)c1 [CBK266090],84.033
5,COc1ccc(S(=O)(=O)Nc2sccc2C#N)cc1 [CBK034732],99.2554
6,O=C(O)c1cc2nc3c(c(C(F)(F)F)n2n1)CCc1ccccc1-3 [CBK263025],94.66
7,NC(=O)CN1CCC(Oc2cncc(OCCN3CCOCC3)n2)C1 (stereo not shown) [CBK084488],90.0042
8,CSc1ncnc2c1CC=N2 [CBK007532],88.9347
9,CC1CCN(S(=O)(=O)c2ccc(NC(=O)COc3ccc4ccccc4c3)cc2)CC1 [CBK264969],109.05
10,COc1ccc(CNC(=O)N2CCN(c3ccccc3OC)CC2)cc1OC [CBK155609],102.167
11,Cc1ccc(CSCc2nc3ccccc3[nH]2)cc1 [CBK265238],84.8428
12,COCc1nc(NCCCn2c(C)cccc2=O)cc([C@H]2C[C@H](N)C2)n1 [CBK307337],61.5693
13,O=C(c1cnoc1-c1ccc(F)cc1)N1CCCC1 [CBK153707],97.9227
14,CC(C)(CO)CNc1cncc(-c2cccc(C(F)(F)F)c2)n1 [CBK065248],81.1346
15,CNC(=O)c1cccc(NC(=O)c2ccc(C)nc2N2CCOCC2)c1 [CBK106223],94.9693
16,CC(=O)N1CCC(C(=O)NC(=O)NC2CCCCC2)CC1 [CBK034847],98.4762
17,CC(Sc1ccc(Cl)cc1)C(=O)Nc1ccc(S(=O)(=O)Nc2ccc(Cl)cc2)cc1 (stereo not shown) [CBK264805],64.4314
18,Cc1ccc(S(=O)(=O)NCCc2nc3ccccc3n2C)s1 [CBK281398],106.169
19,S=C(NCCc1ccccc1)NCCN1CCOCC1 [CBK264929],105.797
20,Cc1ccccc1NC(=O)c1ccccc1Cl [CBK116485],11.2729
21,CC(=O)Nc1ccc(F)c(NC(=O)NCCC2CCCN2C)c1 (stereo not shown) [CBK304661],57.1347
22,Cn1c(Cc2ccc(Cl)cc2)nnc1SCc1nc2ccccc2c(=O)n1-c1cccc(C(F)(F)F)c1 [CBK268425],87.1833
23,CC(=O)NCCN1CC[C@H]2CN(C(=O)c3cc(C)on3)CC[C@H]2CC1=O [CBK288785],90.8659
24,NC(=O)c1cn[nH]c1C1CCCCN1Cc1cccc2c1CCOC2 (stereo not shown) [CBK304745],87.21
25,FC(F)(F)Oc1cccc(OCCOc2nccnc2N2CCNCC2)c1 [CBK014323G],93.8025
26,CC(=O)Nc1cccc(-c2cnc(N(C)S(C)(=O)=O)c(C(=O)NCc3ccc4c(c3)CCO4)c2)c1 [CBK076609],80.2754

row,SMILES,% of control remaining
1,Nc1nc(SCc2ccc(Cl)cc2)nc2sc3c(c12)CCN(Cc1ccccc1)C3 [CBK263724],56.7001
2,O=C(CSc1nc[nH]n1)Nc1nsc(-c2ccc(Cl)cc2)n1 [CBK267273],86.5115
3,O=C(c1cnccn1)N1CCN(CCc2ccccc2)CC1 [CBK200224],92.8363
4,N#Cc1ccc(NCc2ccccc2CN2CCCC2CO)cn1 (stereo not shown) [CBK304077],34.3887
5,CC(C)CC(=O)NCCn1nc(-c2cccs2)oc1=O [CBK282342],103.114
6,CCn1cc(C(=O)NC2(c3cccc(OC)c3)CCCC2)cn1 [CBK283750],76.3004
7,COc1ccccc1CC(C)NC(=O)c1ccnn1C(C)C (stereo not shown) [CBK282595],88.6822
8,Cc1cnc2c(C(=O)N3CC(C(=O)N4CCN(c5ccccc5)CC4)C3)cnn2c1 [CBK285641],103.267
9,COc1ccc(CSc2nnc(-c3ccco3)n2N)cc1 [CBK267548],99.8932
10,CC1(C)COC(=O)N1C1CCN(C(=O)c2cncc(Br)c2)CC1 [CBK038781],79.8757
11,Cn1c(SCC(=O)n2c3c(c4ccccc42)CCCC3)nnc1-c1ccco1 [CBK267370],123.241
12,CCc1ccc(OCC(O)Cn2nnc(-c3ccc(CN4CCC(C)CC4)cc3)n2)cc1 (stereo not shown) [CBK161437T],36.2335
13,Nc1ncnc2sc3c(c12)CCC3 [CBK097952],65.5822
14,CC(=O)c1cc(C#N)c(SCC(=O)O)nc1C [CBK270189],101.364
15,COc1ccc([C@@]23CC[C@@H](NC(=O)Nc4ccc(-c5csnn5)cc4)C[C@@H]2N(C)CC3)cc1OC [CBK051163T],94.3869
16,Cc1ccc2nc(NCC(=O)O)nc(-c3ccccc3)c2c1 [CBK287002],75.7163
17,O=c1c2sc(-c3ccc(F)cc3)cc2ncn1CC1(O)CCCNC1 (stereo not shown) [CBK306525],13.2954
18,Cc1ccnc(NS(=O)(=O)c2ccc(NC(=O)CSc3ccc(Cl)cc3)cc2)n1 [CBK265854],103.867
19,Cc1ccn(CCNC(=O)Cc2coc3cc(C)c(C)cc23)n1 [CBK282578],78.4044
20,Nc1cc2cccnc2nc1-c1cc(F)cc(F)c1 [CBK067604],95.8398
21,Cc1ccc(S(=O)(=O)N2CC[C@@H]3C[C@H](NC(=O)C4CC4C)[C@@H]32)cc1 (stereo partly shown) [CBK284968],87.4601
22,O=C(O)CCC1=C2c3ccccc3CCN2C(=O)CC1 [CBK286945],95.9115
23,Cc1nnc(SCc2cc(=O)nc(Nc3nc(C)c4ccccc4n3)[nH]2)s1 [CBK266549],112.552
24,CC1=CC(c2ccc(Cl)cc2)n2nc(NC(=O)CCC(=O)O)nc2N1 (stereo not shown) [CBK264331],114.471
25,COc1ccc(C2CCN(CC(=O)NC(C)(C)C)CC2)cc1 [CBK283558],101.344
26,O=C(c1n[nH]c2c1CCCC2)N1CCc2ncc(Cl)cc2C1 [CBK284975],113.447
